# Data as given in the supplement of paper PMC4604168 (melanoma cell lines).
# This is one part of the list. Single values are uncertain, as repeats are few or missing.
# Tested on: IPC-298
# Assay: cell count relative to DMSO control; melanoma cells; higher = more viable cells
# Conditions: library dose: low library concentration; 72 h
# 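Further: cell number obtained by counting DAPI-stained nuclei in high-throughput microscope images with image analysis software, screen run in 1,536-well plates.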
row,SMILES,cell count [%]
1,"COc1cc(Nc2ncc(F)c(Nc3ccc4c(n3)NC(=O)C(C)(C)O4)n2)cc(OC)c1OC [Tamatinib] + COC(=O)c1sccc1S(=O)(=O)Nc1ccc(Nc2ccccc2)cc1OC [GSK0660] (first compound 0.4 µM, partner dose 1 µM)",72.5
2,"O=C(O)c1ccc(-c2c[nH]c3ncc(-c4ccccc4)cc23)cc1C1CCCC1 + O=C(O)C(=O)Nc1sc2c(c1C(=O)O)CCNC2 [TCS401] (first compound 0.16 µM, partner dose 1.66667 µM)",104
3,"C[C@@H]1CCN(C(=O)CC#N)C[C@@H]1N(C)c1ncnc2[nH]ccc12 + N#Cc1c(O)c2c(-c3ccc(-c4ccccc4O)cc3)csc2[nH]c1=O [A769662] (first compound 1 µM, partner dose 2 µM)",101
4,"C[C@@H]1CCN(C(=O)CC#N)C[C@@H]1N(C)c1ncnc2[nH]ccc12 + CC(C)CCN1c2nc(Nc3cc(F)c(O)c(F)c3)ncc2N(C)C(=O)C1C [BID1870] (first compound 1 µM, partner dose 0.2 µM)",102
5,"C[C@@H]1CCN(C(=O)CC#N)C[C@@H]1N(C)c1ncnc2[nH]ccc12 + O=c1cc(-c2cccc3c2Sc2ccccc2S3)oc(N2CCOCC2)c1 [KU55933] (first compound 1 µM, partner dose 1 µM)",92.8
6,"O=C(O)c1ccc(-c2c[nH]c3ncc(-c4ccccc4)cc23)cc1C1CCCC1 + O=C1NC(=O)/C(=C/c2ccc(-c3ccc(F)cc3O)o2)S1 [AS252424] (first compound 0.16 µM, partner dose 1 µM)",91.5
